# Experimental data reported in PubChem BioAssay AID1347417 (National Center for Advancing Translational Sciences (NCATS), 2020).
# The whole screen tested about 120,000 compounds, of which about 5,300 (4.4%) were called active. The inconclusive results got no clear call from the source; some entries with a clear call stand among them for comparison. The call rests on the fitted dose curve; in most records, active means well fitted inhibition curve with a large enough effect; inconclusive means small, poorly fitted or top-dose-only effect; inactive means no such curve, though single readings can be large or run the other way. Potencies of inconclusive entries are doubtful fits and often do not repeat.
# Assay: qHTS Primary assay for Inhibitors of Plasmodium falciparum Dd2 growth in vitro; further: nearly all actives have a fitted effect of over 65% in size;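 on activity, negative = inhibition: plate controls were DMSO vehicle for no effect and reference drug for full effect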
# Conditions: P. falciparum Dd2 growth, SYBR Green, 72 h; activity, negative = inhibition: at 28.9 µM (top of the series) unless noted; series mostly up to 28.9 µM
# Summary of the method: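 Infected erythrocytes (Dd2, 0.3% parasitemia, 2.5% hematocrit final) are added to compound in RPMI-1640/Albumax II medium, grown 72 h at 37C in low oxygen, then lysed with saponin/Triton-X containing SYBR Green and read by fluorescence.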
# Potency means the concentration at half of the fitted maximal effect; tags describe the fitted curve by direction and shape.
Compound,Potency,"activity, negative = inhibition",outcome
COc1ccccc1-c1[nH]nc2ncc(C(=O)NCC3CCOCC3)nc12,"inconclusive: 5.62 µM [inhibitor, single point]",–,–
O=C(c1cc2c(=O)[nH]c3ccccc3c2s1)N1CCN(c2ccc(F)cc2)CC1,"inconclusive: 17.8 µM [inhibitor, single point]",–,–
Fc1ccc(Cc2nc3nccc(-c4cccs4)n3n2)cc1,"inconclusive: 6.31 µM [inhibitor, partial curve]",–,–
Cc1nc2c(c(-c3ccc(O)cc3)n1)CN(Cc1cccc3ccccc13)CC2,–,inactive: -0.979%,–
CN(C)Cc1cc(C[C@@H]2C[C@H](NCc3ccc(F)cc3)C2(C)C)no1,active: 3.16 µM,–,–
CC(=O)Nc1ccc(S(=O)(=O)N[C@H]2CO[C@H]3[C@@H]2OC[C@@H]3n2nnnc2Oc2cccc(N(C)C)c2)cc1,"inconclusive: 17.8 µM [inhibitor, single point]",–,–
CS(=O)(=O)N1CCCCC1CCNc1nccc(-c2cccnc2)n1 (stereo not drawn),"inconclusive: 11.2 µM [inhibitor, single point]",–,–
COc1cc2c(cc1OCc1ccccc1)N(C(=O)c1ccnn1C)CC21CCN(C)CC1,"inconclusive: 3.98 µM [inhibitor, single point]",–,–
CCC(Cn1ccnc1)NC(=O)c1cccc(NCc2ccc(F)cc2)c1 (stereo not drawn),"inconclusive: 12.6 µM [inhibitor, partial curve]",–,–
c1ccc(CCCc2noc(-c3ccc(N4CCCNCC4)nc3)n2)cc1,–,inactive: -14.3%,–
CCOc1ccc(-c2ccc(NS(=O)(=O)c3cc(C)c(C)cc3C)cc2)nn1,"inconclusive: 10 µM [inhibitor, single point]",–,–
COc1ccc(-c2noc([C@@H]3CCCN3C(=O)c3cccc(Cl)c3)n2)cc1,–,–,inactive
O=C(C1CC(=O)N(c2n[nH]c3ccccc23)C1)N1CCc2c([nH]c3ccccc23)C1 (stereo not drawn),"inconclusive: 14.1 µM [inhibitor, single point]",–,–
CSCC(=O)Nc1nn(-c2ccc(F)cc2)c2cccc(N3CCOCC3)c12,"inconclusive: 4.47 µM [inhibitor, partial curve, poor fit]",–,–
CCOC(=O)CCNC(=O)N1c2ccccc2CC1c1nc(C(C)C)no1 (stereo not drawn),"inconclusive: 1.41 µM [inhibitor, partial curve, poor fit]",–,–
CC(C)NC(=O)C[C@@H]1c2nc(NC(=O)c3c(F)cccc3F)sc2C[C@@H]2[C@](C)(CO)[C@H](O)CC[C@]21C,–,inactive: -8.21%,–
COC(=O)c1ccc(NC(=O)Cc2coc3cc(C)ccc23)cc1,–,inconclusive: -35.8% [inhibitor] [at 5.79 µM],–
Cc1nc(-c2ccco2)cc([C@H]2CN3CC[C@H]2C[C@@H]3CNS(=O)(=O)c2cccs2)n1,active: 7.08 µM,–,–
